Source: PubChem BioAssay AID743279 (National Center for Advancing Translational Sciences (NCATS), 2014)
“And” between values parts separate entries of the source, which are not always exact repeats. Identical values can stand only once. Out of some 360,000 compounds screened, about 17,000 (4.7%) were called active. Inconclusive means that the source gave no clear call. Such entries were picked first, then a sample of the others. No stated cut-off is given here; in the data, active means activity change below about -50%; inconclusive means mostly about -30% to -49%; inactive means weaker than that.

Experiment: qHTS for Inhibitors of Inflammasome Signaling: IL-1-beta AlphaLISA Primary Screen
Conditions: THP-1 LPS/ATP IL-1B secretion, 16 h; at 57.5 µM, active compounds read low
Method in brief: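 THP-1 cells pretreated 1 hr with compounds (up to 57.5 uM final), then stimulated with LPS (250 ng/mL final) plus ATP (1.25 mM final); secreted IL-1B measured by AlphaLISA after 16 hr, decreased signal indicating inhibition.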
On the % scale 0 is the no-effect control and ±100 the full control effect.

Row | SMILES | activity change
1 | Cc1ccc(S(=O)c2ccc([N+](=O)[O-])c3nonc23)cc1 (stereo not drawn) | inconclusive: -36.5%
2 | Cc1nn(-c2ccccc2)c(N)c1N=Nc1ccc2ccccc2c1 | inactive: -1.5%
3 | CCCCn1c(N)c(N(CC(C)C)C(=O)c2cc3ccccc3cc2OC)c(=O)[nH]c1=O | inactive: -5.88%
4 | COc1ccccc1/C=C1\SC(=S)N(CCC(=O)NCCc2ccc(O)cc2)C1=O | active: -81.8%
5 | CC(=O)NC(=C(Cl)Cl)S(=O)(=O)c1ccccc1 | active: -100%
6 | COc1ccc(-c2cn3cccnc3n2)cc1 | inconclusive: -30.8%
7 | COc1ccc(C(=O)O)cc1S(=O)(=O)Nc1ccc(N2CCCCC2)cc1 | inactive: 8.05%
8 | O=C(NCc1ccccc1)Nc1cccn(Cc2cccc(F)c2)c1=O | inactive: -6.29%
9 | Cc1ccc(OCc2nnc(SCc3cc(=O)[nH]c4ccccc34)n2-c2ccccc2)cc1 | inconclusive: -33.8%
10 | COc1cc(-c2nc3ccccn3c2/N=C/c2cc(OC)c(OC)c(OC)c2)ccc1O | inconclusive: -32.3%
11 | C=CCC[C@H](Cc1ccc(F)cc1)C(=O)OC[C@H](Cc1c[nH]c2ccccc12)NC(=O)[C@H](CC=C)CC(=O)NCCO | inconclusive: -30.4%
12 | CCOC(=O)N(O)c1ccc(C=Cc2ccccc2)cc1 | inconclusive: -49.8%
13 | CCOc1ccc2[nH]c(=O)c(CN(Cc3nnnn3Cc3ccccc3)CC3CCCO3)cc2c1 (stereo not drawn) | active: -63.9%
14 | C=CCn1c(SCc2ccc(C(=O)Nc3ccccc3)cc2)nnc1-c1ccccc1 | inactive: -1.9%
15 | CN1CCN(C(=O)Cn2ncc3c([nH]c4ccccc43)c2=O)CC1 | inactive: 3.01%
16 | O=S(=O)(Nc1ccc(F)cc1)c1ccc(NC(=S)Nc2ccccc2)cc1 | inconclusive: -33.9%
17 | CCN(CC)c1ncnc2c1ncn2[C@H]1CN(Cc2ccncc2)C[C@@H](CO)O1 | inactive: 10%
18 | CCOC(=O)CC(=O)CSc1ccc2nnc(-c3ccccc3)n2n1 | inconclusive: -31.3%
19 | CC1(c2ccc([N+](=O)[O-])cc2)Nc2ccccc2S1 (stereo not drawn) | inconclusive: -40.5%
20 | Nc1ccc(N2CCN(c3cccc(Cl)c3)CC2)cc1 | inconclusive: -39.6%
21 | CC1(C(=O)Nc2ccc(Cl)cc2)Cc2c(-c3ccc(C(N)=O)cc3)ccnc2O1 (stereo not drawn) | inconclusive: -48.4%
22 | C/C=C/c1ccc(OCCCNC)c(OC)c1 | inconclusive: -40.2%

Row | SMILES | activity change
23 | O=S(=O)(c1cccs1)N1CCN(c2ccc(F)cc2)CC1 | inconclusive: -34.1%
24 | Cc1cc(N)ccc1-n1c(C)ccc1C | inconclusive: -39.5%
25 | Cc1nc(NC(C)c2ccccc2)sc1C(=O)Nc1ccccc1 (stereo not drawn) | active: -52.5%
26 | CCn1nccc1C(=O)Nc1ccc(C(=O)OC(C)C)cc1 | inconclusive: -36.5%
27 | CCN(CC)C(=O)c1c2c(nc3ccccc13)-c1ccccc1CC2 | inconclusive: -32.6%
28 | COc1ccc(NC(=O)N[C@H]2C=C[C@@H](CC(=O)NC3CCC3)O[C@@H]2CO)cc1 | inactive: 0%
29 | COc1ccc(CN2CCN(Cc3ccccc3)C(CCO)C2)cc1OC (stereo not drawn) | inactive: -6.26%
30 | Cc1ccc(C2SCC(=O)N2Cc2cn3ccsc3n2)o1 (stereo not drawn) | inconclusive: -31.4%
31 | CCc1cccc(C)c1N=Cc1c(O)c2ccccc2oc1=O | inactive: -1.46%
32 | CC1CN(C(=O)CN2C(=O)c3ccccc3S2(=O)=O)CC(C)O1 (stereo not drawn) | inactive: 18.3%
33 | CN1C[C@H](C(=O)N[C@]2(C)O[C@@]3(O)[C@@H]4CCCN4C(=O)[C@H](Cc4ccccc4)N3C2=O)CC2c3cccc4[nH]cc(c34)C[C@H]21 (stereo partly drawn) | inactive: -22.8% and inactive: -14.9%
34 | CCn1ncc([C@@H]2C[C@H]3CN(Cc4cccc(Cl)c4)C(=O)[C@]34CCCN24)c1C | inconclusive: -35.4%
35 | Cc1nc(NC(=O)/C=C/c2ccc(F)cc2)sc1C(=O)N(C)C | inconclusive: -43.3%
36 | O=C(Nc1ccc(N2CCN(C(=O)c3ccc(Cl)cc3)CC2)cc1)c1ccc(Br)o1 | active: -69%
37 | Cn1cccc1/C=C1\CCc2ccccc2C1=O | inconclusive: -35.5%
38 | Cc1[nH]c2ccccc2c1/C=N/NC(=O)c1cc(-c2ccccc2)n[nH]1 | inconclusive: -39.9%
39 | COc1ccc(Nc2cc(Nc3cc(OC)c(OC)c(OC)c3)ncn2)cc1 | active: -79.7%
40 | O=C1/C(=C\c2cccc(O)c2O)SC(=S)N1Cc1ccccc1 | active: -97.6%
41 | COc1ccc(S(=O)(=O)N/N=c2\oc3c(OC)cccc3cc2S(=O)(=O)c2ccc(C)cc2)cc1OC | active: -54.3%
42 | Cc1ccc(Nc2cc(C)nc3ncnn23)c(Cl)c1 | inconclusive: -37.2%
43 | O=C(Nc1ccc(NC(=O)C2CC2)nc1)c1cnccn1 | inactive: 7.66%
44 | N#Cc1ccccc1NC(=O)c1ccc2c(c1)OCO2 | inconclusive: -31.6%

Row | SMILES | activity change
45 | Cc1ccc(N2CC(C(=O)N3CCC(C(=O)NC(C)(C)C)CC3)CC2=O)cc1 (stereo not drawn) | inactive: -11.1%
46 | Cc1sc2nc(CSc3ccccc3)nc(NCCN(C)C)c2c1C | inconclusive: -37.7%
47 | O=C(Nc1cccc(NC(=O)c2ccccc2[N+](=O)[O-])c1)c1ccccc1Cl | inconclusive: -30.5%
48 | COCCn1c(C(=O)N2CCCC2)cc2c1C[C@H]1CN(C(=O)c3ccccc3)[C@@](Cc3ccc(F)cc3)(C(=O)OC)[C@@H]21 | inactive: -16.7%
49 | Cc1cc(C)c2nc(N(CCCN(C)C)C(=O)c3ccc4c(c3)CCCC4)sc2c1 | active: -77.8%
50 | COc1cc([N+](=O)[O-])ccc1NC(=O)NCc1ccco1 | inconclusive: -35%
51 | O=Cc1ccc2ccc3cccnc3c2n1 | inconclusive: -41.3%
52 | CCn1c(-c2ccccc2)csc1=Nc1ccc(O)cc1 | active: -95.4%
53 | COc1cccc(OCCNc2cc(Cl)ccc2[N+](=O)[O-])c1 | inconclusive: -34.1%
54 | Cc1cnc(NC(=O)c2cc(S(=O)(=O)N(C)C)ccc2N2CCCC2)s1 | active: -63.7%
55 | O=C(NCC1CCN(Cc2ccc(Cl)cc2)CC1)C1CCCN(c2ncnc3c2nc2n3CCCCC2)C1 (stereo not drawn) | active: -61%
56 | COc1ccc(-c2nnc(OCc3ccccc3)c3ccccc23)cc1 | active: -86.6%
57 | O=C(Cc1cccc(C(F)(F)F)c1)Nc1ccc(S(=O)(=O)N2CCCC2)cc1 | inconclusive: -48.2%
58 | Nc1nc(N)c2cc(Sc3ccc(Cl)cc3)ccc2n1 | inconclusive: -47.1%
59 | OC(CN1CCCCC1)Cn1c2ccccc2c2ccccc21 (stereo not drawn) | inconclusive: -36.2%
60 | c1ccc(-c2csc(Nc3nc(N4CCOCC4)nc(N4CCOCC4)n3)n2)cc1 | inconclusive: -31.1%
61 | Cc1cc(C)cc(NC(=O)NC2CCCCCCC2)c1 | inconclusive: -39.8%
62 | O=C(NCC1CC1)c1cc2c(c(-c3cccc(-c4ccccc4F)c3)n1)[C@@H](CCO)N(C(=O)CC1CC1)C2 | active: -59.5%
63 | CCOC(=O)c1ccc(COC(=O)c2cc(=O)[nH]c3ccccc23)o1 | active: -68.1%
64 | COc1ccccc1N(C)S(=O)(=O)c1ccc(Cl)c(C(=O)NCC2(N(C)C)CCCCC2)c1 | inconclusive: -37.6%
65 | O=C(N/N=C/c1cccc([N+](=O)[O-])c1)c1cnccn1 | inactive: -16.5%
66 | COc1ccc(/C=C2/N=C3CCCCCN3C2=O)cc1OC | inactive: -4.24%

Row | SMILES | activity change
67 | Cc1cnc(=O)[nH]c1SCc1cccc([N+](=O)[O-])c1 | inactive: -6.41%
68 | CN1CCN(CCCNC(=O)c2ccc(/C=C3\Oc4ccccc4N(Cc4ccc(Cl)cc4)C3=O)cc2)CC1 | active: -78%
69 | Cc1ccc(Nc2nc(N)nc(CN3CCN(Cc4ccccc4)CC3)n2)cc1Cl | inactive: 0%
70 | CCCCc1ccc(NC(=S)N2CCN(c3ccccn3)CC2)cc1 | inactive: -15.5%
71 | Clc1ccc2c(N/N=C/c3cccc(Br)c3)ccnc2c1 | active: -99.2%
72 | NC(=S)NN=C1CCC(C2CCCCC2)CC1 (stereo not drawn) | inconclusive: -36.3%
73 | Cc1cccc(NC(=S)NNC(=O)c2csc3c2CCC(C)C3)c1 (stereo not drawn) | inconclusive: -33.7%
74 | CC(C)C1C(=O)N(Cc2cn(CCC3OCCCO3)nn2)CCS(=O)(=O)N1Cc1ccc(-c2ccc(Cl)nc2)cc1 (stereo not drawn) | inconclusive: -44.8%
75 | CC(O)[C@H]1CNCCN1CCc1cccc(F)c1 (stereo partly drawn) | inactive: 18.9%
76 | BrC(=C\c1ccccc1)/C=N/N1CCN(c2ccccc2)CC1 | active: -81.1%
77 | O=C(Nc1ccccc1F)NC1CCCCCCC1 | inconclusive: -42.6%
78 | COc1ccccc1S(=O)(=O)N(C)C[C@@H]1Oc2cc(C#CCC(C)C)ccc2S(=O)(=O)N([C@H](C)CO)C[C@@H]1C | inconclusive: -39.1%
79 | OCCNc1ncnc2c1ncn2[C@H]1CN(Cc2ccc(Cl)cc2)C[C@@H](CO)O1 | inactive: 4.82%
80 | Cc1cc(-c2nc3ncccc3o2)ccc1NC(=S)NC(=O)c1ccco1 | inconclusive: -41%
81 | O=C1/C(=C\c2ccccc2)CCc2c1[nH]c1ccccc21 | inconclusive: -35.2%
82 | Clc1ccc(OCCCN2CCCCC2)c(Br)c1 | inactive: -7.88%
83 | O=C(Nc1cc(Cl)ccc1O)c1snnc1-c1ccccc1 | active: -90.1%
84 | c1ccc(-n2cc(CN3CCCC3)c(-c3ccc4c(c3)OCO4)n2)cc1 | inconclusive: -48.2%
85 | Cc1ccc(C(CC(=O)N2CCOCC2)c2ccco2)cc1 (stereo not drawn) | inconclusive: -44.6%
86 | Cc1cccc(-n2ncc3c(NCc4ccccn4)ncnc32)c1 | inconclusive: -45.2%
87 | N#CCc1nc(-c2cc3ccccc3oc2=O)cs1 | inconclusive: -38.2%
88 | Cc1noc(C)c1COc1cccc(C(=O)OC(C)C(=O)Nc2c(C)n(C)n(-c3ccccc3)c2=O)c1 (stereo not drawn) | inactive: 28.6%
